# This is one part of the list.
# Tested on: PF3D7_0420300 AP2 domain 1 (GST-tagged)
# Test: gcPBM binding intensity (ln(normalized median fluorescence intensity)); higher = stronger DNA binding
# How it was run: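 An Agilent 4 × 180k array of primer-extended double-stranded 36-bp intergenic genomic probes, with negative controls, was incubated for 1 h with GST-tagged P. falciparum DNA-binding domains expressed in E. coli. Alexa488 anti-GST antibody detected bound protein, scanned at 488 nm. Binding intensity is the highest Masliner-normalised natural-log median intensity across replicate spots of either probe orientation.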
row,Sequence,gcPBM binding intensity (ln)
1,CAAATAAAAAAAGTAGCACACATGAATAAAATATAT [CACACA_site3130],9.73
2,ATACATACATATGTATGTACGTATGTATGTATGTAT [XGTACX_site3853],9.13
3,ATATCTTCACTTATATGTACTTACATTTTTTTTTTT [XGTACX_site8696],9.47
4,ATTTGTATATAATATATATAATTTTTTTTTTTTGTT [XGTACX_negctrl_site425],9.28
5,ATAACTATATACATCTGTACATAATACATAGATAAA [XGTACX_site2795],9.31
6,TGATAAATTTTCACATGTACATATATAGAATAACCT [XGTACX_site2860],9.21
7,ATTAAATCATATGAATGTACGGATATATATATTTCC [XGTACX_site8650],9.13
8,ATAATATATGCAAAAACATGCACATAATATGTAAAA [TGCATGCA_site742],9.01
9,ATAATTTTATATAAATGTACATACATTTTTATTATA [XGTACX_site7368],9.12
10,ATATATATGTATATATGTACATATATGTATATATAT [XGTACX_site4772],9.19
11,TATACACATAGACACACACACATACACGCACATACA [CACACA_site6908],10.1
12,TCTAAAAAAATTATATCACACATTATAAAGCATATT [CACACA_site4885],9.26
13,TAATAAGTATCAAAATGTACATGACAAAAATAATTT [XGTACX_site8961],9.39
14,ATTTGAAAAAATACTACACACCATATTGTTAATTTT [CACACA_site3829],9.44
15,AAGATTCATATAAAAAGTACAAAAAGAAAAAAATAA [XGTACX_site6033],9.33
16,TAATATATAAATATATGTACATAATAAATAGGATAT [XGTACX_site3661],9.44
17,TTTATATAAGGACATGCATGCTATTATTAAATATAT [TGCATGCA_site1011],9.08
18,ACTTCATAGGTTACCTGTACATATAAGGAGTTATCA [XGTACX_site4110],9.11
19,TACGCGAAATGAATATGTACATATATGAGGGCATAT [XGTACX_site4293],9.31
20,ATGAATTAACCTAATCGTACAATAAATATTATTATA [XGTACX_site596],9.07
21,ATATATATATATGTATGTATATATATATGTTTGATT [XGTACX_negctrl_site62],9.26
22,ACTATTTAAAAATATGGTACACGAAATTCAAGAGAA [XGTACX_site5903],9.35
23,AAGTTTTATATTTATTAAATTTTTTTTTTTCCTTTT [XGTACX_negctrl_site184],9

row,Sequence,gcPBM binding intensity (ln)
1,TTTTTTATTTTGTTGAAGCAATGAAAATGAATGAAA [TGCATGCA_negctrl_site495],8.9
2,ATATGTTTAAAAATATGTACGTATTATATATTCTAT [XGTACX_site1358],9.34
3,TTGTTTATGTGAGAAGTGCATTTTTTCGTTCATGTA,9.33
4,ATGTAAGTATAAAATGTGCGCATTGGGAATGAGGAC,9.98
5,TTTTTATTTTTTGTCTGTACATATATAAATTTATTA [XGTACX_site1525],9.37
6,GATATAAGGGTATGAAGTACATAAATATTTTATGCT [XGTACX_site1886],9.28
7,TATGCACGCGAACACACACACACAACTAAAAAATAA [CACACA_site7251],9.97
8,GGAAACCCTCCCAAATGTACTTTTATAAAAAAATAC [XGTACX_site5502],9.36
9,TATACTCAGAAACACACACACACACCCAAAAAAAAA [CACACA_site4434],9.97
10,ATATAAGTACATATAACACACATATATTATAAGTAT [CACACA_site2647],9.62
11,TTTGCCATAAAACACACACACATGTAAACCCCCTTT [CACACA_site1646],9.95
12,AAAAAAAAAAAAAAAACACACATACACCCAGACACA [CACACA_site5807],9.6
13,ATACATATATAAATATGTACACACATATGTATGATC [XGTACX_site8219],9.42
14,GAATATTTATCATGGGGTACCTTAAAAAAGGGAAAA [XGTACX_site298],9.06
15,TTTTATTTATAATATATACACACTAACATTATTTAT [CACACA_site1284],9.24
16,ATATCTTAAATTATTTGTACATATATATATATATAT [XGTACX_site8034],9.35
17,AATATAAACCCAAACACACACATATATATATATATA [CACACA_site268],9.81
18,TTTTTTTTTTTGAGGAGGACACAAAAATATGCTACC [XGTACX_site756],8.94
19,TATATTCTTTTAAACAGTACACACACACATATATAT [XGTACX_site1701],10.2
20,AATATAAAAATATAAAAACACACGTAAAAAAATTTA [CACACA_site3399],9.73
21,AAAAAAATTAAAAATAAAGAAAAAAAAAAAAAAAAA [GTGCAC_negctrl_site401],8.69
22,TGTAGATATTATATATGTACGCATATGAAATATATA [XGTACX_site1586],9.09
23,TTCAAAATATATATTTGTACATATAGGATCTTTTTC [XGTACX_site4500],9.05

row,Sequence,gcPBM binding intensity (ln)
1,AAAATATATAATATAACACACATATATTCTATATGG [CACACA_site4044],9.43
2,TAATTATATAAATATTGTACAAAAAAAATATATATA [XGTACX_site3137],9.18
3,GTAATATCAATATAAAGTACACACTATAGTATGTAT [XGTACX_site4714],9.52
4,TCTTTTTTTTTTTTTTTTTTTTTTTTTTTTTTTTTT [GTGCAC_negctrl_site18],9.17
5,ATTTTAATGACATATACACACAAAGGTTCATAACAA [CACACA_site5664],9.58
6,TTTTCTTTTTAAATTACACACACATATATATATGTA [CACACA_site9172],9.66
7,ATAAAACCAACATAGAGTACAGATCGACTATGTTTC [XGTACX_site4329],9.5
8,TTAACGCTTATTTTTTGTACTTATTTTATTTTAAAT [XGTACX_site3977],9.59
9,CAACATTAATATAAAGCACACATATATATAATATAT [CACACA_site8064],9.53
10,ACTCTATAATAAAATACACACAAGACTATCTAATAT [CACACA_site1796],9.61
11,ATATATACATATAATTGTACTTGTGTTGTTTTTCTT [XGTACX_site1870],9.75
12,TACAAAAGCGATACGGCACACATTTCCTGTTTAAAT [CACACA_site2746],9.41
13,AAAAGATTGCTCCGCATGCACCTCCAAAAGTTCCTT [GTGCAC_site9993],9.08
14,TTTGCTTCCAAAAGTCGTACAAAAAATATTAAATAT [XGTACX_site4171],8.87
15,ACAGAATACATATACACACATACAAAAAAGTGCATA [CACACA_site987],9.78
16,CATTATGTTGTAAATGCACACATACATATACACAGT [CACACA_site8990],9.51
17,TCATACTGTATATTTTGTACTTATATATATATTATA [XGTACX_site6136],9.52
18,TTATTTTGTTTTAAAAGTACACACTTTTAATTAGAT [XGTACX_site2271],9.22
19,ATAATAAGCAAACACACACACACAAAAAAAAAAAAA [CACACA_site720],10.2
20,TATATAAACACGTACACACACATATAGGTATTTATA [CACACA_site7615],9.97
21,CTTTTCTTTTTTTTTTGTACATAAAATTATTCCTTA [XGTACX_site3924],9.21
22,TTTTGTTGCTCTTTTTTTTTTTTTTTTAACTGTATG [CACACA_negctrl_site1072],9.52
23,AATATAGTCACACATACACACATATAGATTTATATA [CACACA_site7223],9.7

row,Sequence,gcPBM binding intensity (ln)
1,AAAAAAAAAAAAAGGTGTACATAAGTAAATTCATAT [XGTACX_site4206],9.47
2,AACCAATATGTGTATACACACATAAATATAAATATA [CACACA_site7729],9.57
3,TATCAAAATTAGTATACACACAAAATTATTCAAATA [CACACA_site2232],9.43
4,TAAAAGGAAAAAAAAGCACACACAATATTACTTGAA [CACACA_site8831],9.77
5,TATACATATAAATTGTGTACACATATATATATATTT [XGTACX_site7875],9.2
6,AATATATAAATTAATACATGCACATATAGAAAGGGA [TGCATGCA_site472],9.7
7,CTTTTTACTTAATACACACACACACTAGAAAAAAAA [CACACA_site4680],10
8,AAACAAAAAATTTAAAGTACAAAAATTATGATTGTT [XGTACX_site465],9.32
9,AAAAAATTAATATTGACACACATTTTTAAGAATAAT [CACACA_site239],9.32
10,CAAAAGGATAGGCACACACACACACCCATATATATA [CACACA_site2199],10.1
11,AATATGTCTATATTTTTTATATGGAAATATTATAAA [GTGCAC_negctrl_site700],8.81
12,TTTTTTTTTTTTTTTTTTTTTTTATCTATTATTTAT [XGTACX_negctrl_site496],8.34
13,AATACTATTATTATTGCACACTTATTATCCCTCGGA [CACACA_site4262],9.4
14,TATCCATTTCTTTATGTGCACATTAAATATATTTGT,9.48
15,TATAAAAATATTTCTACACACATTAATATATATATA [CACACA_site1150],9.46
16,AATATATAGAGAGATATGCACACTGTATGAATGCAC [CACACA_site2677],9.4
17,TATATTAATAATAAGTGTACATATATATATATTTTT [XGTACX_site288],9.19
18,TATTTTTTCTTTCATTGTACTTTTTTTTTGTTTTGT [XGTACX_site4081],9.69
19,ATTTGTAAAAAATTCATACACACGTCTTATTTTTAA [CACACA_site1390],9.34
20,AATGAGAAATATAATTGTACATATATTTATTTTCAT [XGTACX_site3669],9.16

# Source: the supplement of paper PMC11417369
